This is one part of the list. These are noisy estimates, calculated here from bound and input reads.

The target in the test is T1, Pho4 (S. cerevisiae) (UniProt P07270).
T1 sequence: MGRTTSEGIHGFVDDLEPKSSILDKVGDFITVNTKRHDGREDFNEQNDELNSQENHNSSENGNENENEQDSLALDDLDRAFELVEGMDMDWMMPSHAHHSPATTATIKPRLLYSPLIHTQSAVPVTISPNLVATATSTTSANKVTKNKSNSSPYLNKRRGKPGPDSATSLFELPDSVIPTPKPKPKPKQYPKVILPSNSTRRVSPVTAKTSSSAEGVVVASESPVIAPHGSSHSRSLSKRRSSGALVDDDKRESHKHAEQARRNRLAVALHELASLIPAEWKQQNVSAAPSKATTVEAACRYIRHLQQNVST
The test is described as follows: relative binding free energy (BET-seq); higher = weaker binding. Conditions: reference: library average.
For the sequence CTTTTCACGTGATTCG, the “relative binding free energy” value worked out at 0.24 kcal/mol.
In the case of CGGGTCACGTGAATAT, the “relative binding free energy” value came out at 0.24 kcal/mol.
Under CCGTTCACGTGGGGGA stands 0.22 kcal/mol.
As to TGTCTCACGTGCATGT, the “relative binding free energy” value worked out at 0.06 kcal/mol.
Under TCAATCACGTGTTTTG stands 0.13 kcal/mol; under GATTACACGTGGTAAT, 0.11 kcal/mol.
For the sequence AGGCTCACGTGTGTGT, the “relative binding free energy” value was found to be 0.19 kcal/mol.
Consider TTCGACACGTGCTGGT, for which the “relative binding free energy” value worked out at 0.12 kcal/mol.
For TTGTTCACGTGGGGGT, the “relative binding free energy” value is 0.13 kcal/mol.
As for TTGACCACGTGTGTTT, the figure is -0.07 kcal/mol.
For TTCCTCACGTGTTTTT, the “relative binding free energy” value amounted to 0.19 kcal/mol.
Under ATTGGCACGTGCCGCG stands -0.17 kcal/mol; under CGGGGCACGTGGGATT, -0.2 kcal/mol.
For the sequence AGTTACACGTGGATTT, the “relative binding free energy” value was 0.03 kcal/mol.
Consider TGCTTCACGTGCTGGA, for which the “relative binding free energy” value was found to be 0.24 kcal/mol.
Under TTTGCCACGTGAAGTA stands 0.3 kcal/mol; under GTTTGCACGTGTGGCG, 0.13 kcal/mol; under TTACTCACGTGGGGGC, 0.19 kcal/mol.
For the sequence CCGGTCACGTGGGGCG, the “relative binding free energy” value was -0.04 kcal/mol.
Consider GGGATCACGTGGCTTG, for which the “relative binding free energy” value amounted to 0.11 kcal/mol.
Under TAATGCACGTGAGAGA stands 0.22 kcal/mol.
As for CGTGACACGTGGGGAT, the figure is -0.13 kcal/mol; as for TTTATCACGTGGGAGG, 0.17 kcal/mol.
Under GTGGTCACGTGCTATT stands 0.05 kcal/mol.
As to TGTTGCACGTGTTACG, the “relative binding free energy” value worked out at 0.14 kcal/mol.
For GGGGGCACGTGGGGCG, the “relative binding free energy” value is -0.15 kcal/mol.
Under TGTATCACGTGAGGAG stands 0.41 kcal/mol.
As for GATTGCACGTGAGTGA, the figure is 0.29 kcal/mol; as for TGTTGCACGTGTGCCT, -0.04 kcal/mol.
For TCTGACACGTGTGTAT, the “relative binding free energy” value amounted to 0.09 kcal/mol.
Under CGTGGCACGTGTGACG stands 0.09 kcal/mol; under GTGTTCACGTGGGAGT, 0.24 kcal/mol; under GGGATCACGTGTTTAA, 0.15 kcal/mol.
Take CTGCTCACGTGTGGGG: the “relative binding free energy” value was 0.19 kcal/mol.
Turning to GTTTTCACGTGAGGTG, the “relative binding free energy” value is 0.53 kcal/mol.
Consider GGGGTCACGTGCGAAG, for which the “relative binding free energy” value turned out to be 0.06 kcal/mol.
Under TAGATCACGTGGAGTA stands 0.06 kcal/mol; under CATGTCACGTGCGGGG, -0.02 kcal/mol.
Under CGTGGCACGTGTCGTG stands -0.1 kcal/mol; under GTATACACGTGTGGGC, -0.01 kcal/mol.
As for GGAGACACGTGAATGG, the figure is 0.35 kcal/mol.
Consider ATTGGCACGTGGTCGG, for which the “relative binding free energy” value is -0.21 kcal/mol.
As for TGTGCCACGTGGTGTT, the figure is -0.2 kcal/mol; as for TCTGACACGTGTGTGT, 0.05 kcal/mol; as for GGTGTCACGTGATCTA, 0.35 kcal/mol.
As for TTAGTCACGTGTGAAG, the figure is 0.05 kcal/mol; as for TGATTCACGTGCGTTG, 0.11 kcal/mol; as for AGGGTCACGTGTGCTG, 0.16 kcal/mol.
Turning to TGTGTCACGTGTAGTC, the “relative binding free energy” value turned out to be 0.19 kcal/mol.
Take TAATACACGTGGTGTG: the “relative binding free energy” value is -0.09 kcal/mol.
For ACGTGCACGTGATTGT, the “relative binding free energy” value was -0.04 kcal/mol.
As for ATTGCCACGTGAAGTG, the figure is 0.05 kcal/mol.
Under GTTTTCACGTGCTGAT stands 0.28 kcal/mol; under GGGTTCACGTGGGACA, 0.17 kcal/mol.
Under AAATTCACGTGGGGTA stands 0.13 kcal/mol; under AAGGTCACGTGGTAGT, 0.02 kcal/mol.
As to CGCTGCACGTGGGCGT, the “relative binding free energy” value is -0.23 kcal/mol.
As for GCGGGCACGTGGTGTA, the figure is -0.03 kcal/mol.
Turning to ATGTCCACGTGGGGGC, the “relative binding free energy” value is -0.18 kcal/mol.
As for TCGATCACGTGGGGAA, the figure is 0.05 kcal/mol; as for AGGTACACGTGGTGAG, 0.08 kcal/mol.
Under ATCTGCACGTGTCGGT stands 0 kcal/mol; under GTGAACACGTGCAAGT, 0.22 kcal/mol.
Under TTTGGCACGTGGTCAG stands -0.13 kcal/mol; under TGTGCCACGTGGACGG, 0 kcal/mol; under AATGGCACGTGATTCG, 0.03 kcal/mol.
For GAAGGCACGTGGGAAA, the “relative binding free energy” value was 0.05 kcal/mol.
Under AGGCACACGTGTTTTT stands 0.08 kcal/mol; under TTAAGCACGTGGGTGC, -0.18 kcal/mol; under CGTGGCACGTGTCATG, -0.22 kcal/mol.
Under ATTGTCACGTGTATCA stands -0.02 kcal/mol; under TGATTCACGTGGTTTC, 0.25 kcal/mol.
Consider CTTTACACGTGCGTTT, for which the “relative binding free energy” value came out at 0.01 kcal/mol.
Consider GGACGCACGTGTTGTG, for which the “relative binding free energy” value was -0.02 kcal/mol.
Consider TATTGCACGTGGTTGG, for which the “relative binding free energy” value worked out at 0 kcal/mol.
In the case of AAAGCCACGTGTGTGT, the “relative binding free energy” value was -0.02 kcal/mol.
In the case of TTAAGCACGTGCGAGG, the “relative binding free energy” value is -0.17 kcal/mol.
Under TGATGCACGTGATTTT stands 0.17 kcal/mol; under TTAATCACGTGAGTGA, 0.27 kcal/mol.
With GTATACACGTGAGTAA, the “relative binding free energy” value came out at 0.31 kcal/mol.
As for GGATTCACGTGGAAAT, the figure is 0.39 kcal/mol.
For ATGAACACGTGATGGA, the “relative binding free energy” value was 0.18 kcal/mol.
In the case of TGAATCACGTGATGTT, the “relative binding free energy” value is 0.3 kcal/mol.
For ATGTCCACGTGGTAGT, the “relative binding free energy” value worked out at 0.03 kcal/mol.
Under TGATTCACGTGACATT stands 0.32 kcal/mol; under GGCTGCACGTGAGGTG, 0.27 kcal/mol.
As to GGATGCACGTGAAGGA, the “relative binding free energy” value was 0.21 kcal/mol.
Turning to GATGACACGTGATGTT, the “relative binding free energy” value was found to be 0.09 kcal/mol.
Under AGTTACACGTGAGGGG stands 0.29 kcal/mol; under AATCTCACGTGAGTGT, 0.27 kcal/mol.
Take ATATGCACGTGGTTCT: the “relative binding free energy” value was -0.14 kcal/mol.
With GATGTCACGTGTAAAT, the “relative binding free energy” value is 0.23 kcal/mol.
As for GATTTCACGTGGTAAT, the figure is 0.27 kcal/mol; as for TATGGCACGTGAGTTG, 0.13 kcal/mol.
Under TTTGTCACGTGTGCTC stands 0.06 kcal/mol; under GGTTGCACGTGCGCGT, -0.14 kcal/mol.
Under GATGTCACGTGCGGAT stands 0.23 kcal/mol; under AGTGTCACGTGGGGCT, -0.13 kcal/mol; under TGGTTCACGTGTCATG, 0.32 kcal/mol.
Regarding TTCGGCACGTGTGAGG, the “relative binding free energy” value amounted to 0.04 kcal/mol.
Under TAAGTCACGTGTTCGA stands 0.05 kcal/mol; under AATACCACGTGAGGGG, 0.18 kcal/mol; under ATGGTCACGTGGCTCG, 0.13 kcal/mol.
As for GGCTACACGTGGTGGA, the figure is 0.2 kcal/mol; as for TGTTGCACGTGTTGTT, 0.05 kcal/mol; as for TGGATCACGTGGGGCG, -0.02 kcal/mol.
Take CGGTACACGTGAGGCG: the “relative binding free energy” value was found to be 0.43 kcal/mol.
With TAATTCACGTGAGAAG, the “relative binding free energy” value was 0.4 kcal/mol.
In the case of TGCGTCACGTGTTGAT, the “relative binding free energy” value came out at 0.17 kcal/mol.
AGTGGCACGTGCATAG: the “relative binding free energy” value was -0.28 kcal/mol.
As for GAATTCACGTGTATTA, the figure is 0.32 kcal/mol; as for GGGTACACGTGGAAGC, 0.24 kcal/mol; as for TAGGACACGTGCTGGT, 0.01 kcal/mol.
As for ATAATCACGTGTTCGT, the figure is -0.03 kcal/mol; as for TTGGCCACGTGATAGG, 0.02 kcal/mol.

The values are drawn from the BET-seq Pho4 binding data (Le et al. 2018).
